PubChem BioAssay (NCATS)
Several values for one entry are separate records, joined by “and”; a condition that tells them apart may be missing. Equal values may be shown once. Inconclusive results, whose numbers are uncertain, are shown with a selection of clear calls. Where the call is inconclusive, the potency comes from a doubtful curve fit. Activity calls are given as the source filed them. Calls come from the whole dose curve; as a rule, active = well fitted curve in the direction sought with a large enough effect; inconclusive = small, poorly fitted or top-dose-only effect, or another doubt; inactive = no such curve, though single readings can be large; an effect the other way counts as inactive or inconclusive.

Assays:
[1] = qHTS for Inhibitors of Plasmodium falciparum (DD2) proliferation (AID 504314);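 for activity, negative = inhibition: parasite DNA measured by SYBR Green fluorescence after red cell lysis; plate controls were DMSO vehicle for no effect and artemisinin wells for full effect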; settings: P. falciparum Dd2 in erythrocytes, SYBR Green growth, 72 h; activity, negative = inhibition: at 6.11 µM (top of the series)
Outline: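 Normalization used 0.29 uM artemisinin as full inhibition and DMSO as baseline. Parasitized erythrocytes were exposed to compounds for 72 h (37C, 5% CO2), then lysed with saponin/Triton buffer containing SYBR Green I.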

[2] = qHTS for Inhibitors of Plasmodium falciparum (GB4) proliferation (AID 504315); note: nearly all actives have a fitted effect of over 50% in size;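 for activity change, negative = inhibition: 0% = DMSO vehicle and -100% = 0.29 µM artemisinin control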; settings: P. falciparum GB4 in erythrocytes, SYBR Green DNA, 72 h; activity change, negative = inhibition: at 6.7 µM (top of the series)
Outline: (§1)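 Parasite growth measured as SYBR Green DNA fluorescence (ex 485, em 535 nm) after overnight lysis following 72 h culture at 37 °C, 0.3% parasitemia, 2.5% hematocrit. Values normalized against DMSO and 0.29 uM artemisinin controls, with plate-stack correction.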

[3] = qHTS for Inhibitors of Plasmodium falciparum (7G8) proliferation (AID 504316); note: nearly all actives have a fitted effect of over 65% in size;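 for activity change, negative = inhibition: 0% = DMSO vehicle and -100% = 0.29 µM artemisinin full kill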; settings: P. falciparum 7G8 in erythrocytes, SYBR Green DNA, 72 h; activity change, negative = inhibition: at 6.7 µM (top of the series)
Outline: as §1

[4] = qHTS for Inhibitors of Plasmodium falciparum (HB3) proliferation (AID 504318); note: nearly all actives have a fitted effect of over 60% in size; settings: P. falciparum HB3 in erythrocytes, SYBR Green DNA, 72 h; activity change, negative = inhibition: at 7.21 µM (top of the series)
Outline: as §1

[5] = qHTS for Inhibitors of Plasmodium falciparum (CP250) proliferation (AID 504320);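 for activity change, negative = inhibition: plate controls were DMSO vehicle for no effect and 0.29 µM artemisinin control for full effect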
Outline: as §1
Potency is the fitted concentration of half-maximal effect; tags give direction and shape of the fitted curve.

SMILES | Potency [1] | Potency [2] | Potency [3] | Potency [4] | Potency [5] | activity, negative = inhibition [1]
CC(CCN1CCCc2nc(C)c(C)cc21)=NO[C@H](C)CN1CCCc2nc(C)c(C)cc21 | inconclusive: 1.5 µM [inhibitor, partial curve] | inconclusive: 2.69 µM [inhibitor, single point] | inconclusive: 2.13 µM [inhibitor, single point] | inconclusive: 4.15 µM [inhibitor, single point] | inconclusive: 1.69 µM [inhibitor, partial curve] | –
CC#CCN1c2ccccc2[C@]23C[C@@H](C(=O)OC)N(S(=O)(=O)c4ccc5c(c4)OCCN5C)C2=NC(C(=O)OC)=C(C(=O)OC)[C@H]13 | – | inconclusive: 4.26 µM [inhibitor, single point] | inconclusive: 3.38 µM [inhibitor, single point] | inconclusive: 3.38 µM [inhibitor, single point] | inconclusive: 2.13 µM [inhibitor, single point] | inactive: 0.12% [at 1.12 µM]
COc1ccc(C=CC2=C[C@]3(C)C[C@]2(C)[C@H](c2ccc(OC)cc2)CC3=O)cc1 | active: 1.5 µM | active: 1.69 µM | active: 1.51 µM | active: 1.51 µM | inconclusive: 4.26 µM [inhibitor, single point] | –
COC(=O)C1=C(C)N(Cc2ccccc2)C(=NCCc2cccs2)NC1c1cccc(C(F)(F)F)c1 (stereo not given) | inconclusive: 1.5 µM [inhibitor, partial curve] | inconclusive: 0.953 µM [inhibitor, partial curve] | inconclusive: 0.757 µM [inhibitor, partial curve] | inconclusive: 0.0024 µM [inhibitor, full curve, poor fit] | inconclusive: 2.69 µM [inhibitor, partial curve, poor fit] | –
CC(C)(C)Nc1oc(-c2ccccc2)nc1-c1cccc2ccccc12 | inconclusive: 1.69 µM [inhibitor, single point] | inconclusive: 1.35 µM [inhibitor, partial curve, poor fit] | inconclusive: 1.69 µM [inhibitor, partial curve] | inconclusive: 1.69 µM [inhibitor, partial curve] | inconclusive: 2.39 µM [inhibitor, single point] | –
C=CCC12C=C(OC)C(=O)C(C1=O)C(c1ccc(OC)cc1)C2C (stereo not given) | inconclusive: 3.78 µM [inhibitor, single point] | inconclusive: 4.26 µM [inhibitor, single point] | inconclusive: 1.69 µM [inhibitor, single point] | inconclusive: 1.9 µM [inhibitor, single point] | inconclusive: 2.39 µM [inhibitor, single point] | –
CCCCCCCC1=Cc2ccc(F)cc2C(C(C(=O)OC)C(=O)OC)N1C(=O)OC (stereo not given) | inconclusive: 4.24 µM [inhibitor, single point] and inconclusive: 1.69 µM [inhibitor, single point] | inconclusive: 2.13 µM [inhibitor, single point] and inconclusive: 1.69 µM [inhibitor, single point] and inconclusive: 1.9 µM [inhibitor, single point] | inconclusive: 4.26 µM [inhibitor, single point] and inconclusive: 1.9 µM [inhibitor, single point] | inconclusive: 2.69 µM [inhibitor, single point] and inconclusive: 1.51 µM [inhibitor, partial curve] and inconclusive: 1.51 µM [inhibitor, single point] | inconclusive: 4.26 µM [inhibitor, single point] and inconclusive: 1.69 µM [inhibitor, partial curve, poor fit] and inactive | –
CCc1cc2c(nc1CC)CCN(CCC(C)=NO[C@@H](C)CN1CCCc3nc(C)c(C)cc31)C2 | inconclusive: 2.67 µM [inhibitor, single point] | inactive | inconclusive: 1.9 µM [inhibitor, single point] | inconclusive: 1.9 µM [inhibitor, single point] | inconclusive: 1.2 µM [inhibitor, partial curve, poor fit] | –
CCCCCCCC1=Cc2ccccc2C(C(C(=O)OC)C(=O)OC)N1C(=O)OC (stereo not given) | inactive | inconclusive: 1.69 µM [inhibitor, partial curve, poor fit] and inconclusive: 1.69 µM [inhibitor, single point] | inconclusive: 1.51 µM [inhibitor, single point] and inconclusive: 2.13 µM [inhibitor, partial curve] | inconclusive: 1.51 µM [inhibitor, single point] and inconclusive: 1.69 µM [inhibitor, single point] | inconclusive: 2.69 µM [inhibitor, single point] | –
COC(=O)C1=C(C(=O)OC)[C@@H]2N(Cc3ccccc3)c3ccccc3[C@@]23C[C@@H](C(=O)OC)N(S(=O)(=O)c2ccc(C#N)cc2)C3=N1 | inconclusive: 0.165 µM [inhibitor, partial curve, poor fit] | active: 2.13 µM | active: 1.9 µM | active: 1.69 µM | inconclusive: 3.79 µM [inhibitor, single point] | –
CCCC[C@]12Cc3cc(OC)c(OC)cc3[C@H](O1)c1c(cc(-c3ccccc3)oc1=O)O2 | inconclusive: 1.5 µM [inhibitor, single point] | inconclusive: 4.26 µM [inhibitor, single point] | active: 1.51 µM | inconclusive: 4.26 µM [inhibitor, single point] | inconclusive: 4.26 µM [inhibitor, single point] | –
C[C@@H]1C[C@H]2[C@@H](Cc3ccccc3)C(=O)N3[C@@H](C[C@@H](C)[C@@H]3c3ccccc3)[C@@H](Cc3ccccc3)C(=O)N2[C@H]1c1ccccc1 | inconclusive: 3.78 µM [inhibitor, single point] | inconclusive: 1.69 µM [inhibitor, single point] | inconclusive: 2.13 µM [inhibitor, single point] | inconclusive: 1.51 µM [inhibitor, single point] | inconclusive: 2.69 µM [inhibitor, partial curve, poor fit] | –
COC(=O)c1ccc(CN2C(=O)[C@@]3(CC(C)=CC[C@@H](COc4ccccc4)O3)c3c(Br)cccc32)cc1 | inconclusive: 3.78 µM [inhibitor, single point] | inconclusive: 4.26 µM [inhibitor, single point] | inconclusive: 3.01 µM [inhibitor, single point] | active: 1.51 µM | inconclusive: 4.26 µM [inhibitor, single point] | –
O=C(N[C@H](c1cccc(Br)c1)[C@@H]1CCCC=C1c1ccccc1)C(F)(F)F | inconclusive: 3.36 µM [inhibitor, single point] | inconclusive: 1.9 µM [inhibitor, single point] | inactive | inconclusive: 2.39 µM [inhibitor, single point] | inconclusive: 1.69 µM [inhibitor, partial curve, poor fit] | –
C=C[C@H]1CCC=C2C(=O)CCC[C@H]21 | inconclusive: 1.5 µM [inhibitor, partial curve] | inconclusive: 4.78 µM [inhibitor, single point] | active: 1.9 µM | inconclusive: 1.69 µM [inhibitor, partial curve] | inconclusive: 3.79 µM [inhibitor, partial curve, poor fit] | –
CC#CCN1c2ccccc2[C@]23CCC(=O)N(Cc4ccco4)C2=NC(C(=O)OC)=C(C(=O)OC)[C@H]13 | inconclusive: 1.69 µM [inhibitor, partial curve] | inconclusive: 1.51 µM [inhibitor, partial curve] | active: 1.69 µM | inconclusive: 1.51 µM [inhibitor, partial curve] | inconclusive: 1.35 µM [inhibitor, partial curve, poor fit] | –
